# From PubChem BioAssay AID624171 (National Center for Advancing Translational Sciences (NCATS), 2012)
# Screen size: about 410,000 compounds; about 1,200 (0.29%) were called active. The shares of active, inactive and inconclusive entries below differ from those in the screen. The call rests on the fitted dose curve; in most records, active means well fitted activation curve with a large enough effect; inconclusive means small, poorly fitted or top-dose-only effect; inactive means flat fitted curve, though single readings scatter. Where the call is inconclusive, the potency comes from a doubtful curve fit.
# Assay: qHTS of Nrf2 Activators; further: nearly all actives have a fitted effect of over 65% in size
# Conditions: AREc32 ARE-luciferase reporter (MCF7-derived line), luminescence, 24 h; series mostly up to 46.1 µM
# How it was run: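 Each well held 1000 AREc32 cells, which were incubated with compound for 24 hr at 37 deg C after overnight attachment, and ARE reporter activity was quantified by firefly luciferase luminescence.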
# Potency means the concentration at half of the fitted maximal effect; tags describe the fitted curve by direction and shape.
row,Structure (SMILES),Potency
1,COc1cc(CN2CCN(C(=O)CC(C)C)CC2)cc(OC)c1O,inactive
2,O=C1CC(C(=O)Nc2ccc(Cl)cc2)S/C(=N\N=C\c2ccco2)N1 (stereo not drawn),"inconclusive: 6.31 µM [activator, partial curve]"
3,O=C(c1cccs1)N1CC=C(c2ccccc2)CC1,"inconclusive: 22.4 µM [activator, single point]"
4,Cc1nn(C)c(C)c1NS(=O)(=O)c1c(C)n[nH]c1C,inactive
5,COc1ccc(CCNC(=O)CSc2nc3[nH]ncc3c(=O)[nH]2)cc1OC,"inconclusive: 5.62 µM [activator, single point]"
6,CCOc1ccc(N/C(SCc2cccc([N+](=O)[O-])c2)=C(/C#N)C(N)=O)cc1,"inconclusive: 31.6 µM [activator, single point]"
7,O=C(Nc1ncnc2sc3c(c12)CCCCC3)c1ccco1,"inconclusive: 1.12 µM [activator, full curve, poor fit]"
8,Oc1c(/C=N/c2ccccn2)sc2ccccc12,"inconclusive: 28.2 µM [activator, single point]"
9,O=C(NCc1ccco1)c1cccc(-c2ccc3nncn3c2)c1,"inconclusive: 11.2 µM [activator, partial curve]"
10,CC(=O)Nc1ccc(SCC(=O)c2c(N)n(Cc3ccccc3)c(=O)n(C)c2=O)cc1,inactive
11,COc1cccc(C(O)c2nc(-c3cccc(C#N)c3)cs2)c1 (stereo not drawn),inactive
12,Oc1oc(-c2ccco2)nc1C=Nc1ccccc1,active: 12.6 µM
13,Cc1cc(C)cc(NC(=S)NCc2cccs2)c1,inactive
14,Clc1cccc(Cl)c1CSc1nnc(/C=C/c2ccccc2)o1,inactive
15,COc1ccccc1C(C[N+](=O)[O-])c1c(N)n(C)c(=O)n(C)c1=O (stereo not drawn),"inconclusive: 3.98 µM [activator, single point]"
16,O=[N+]([O-])/C(C(Cl)=C(Cl)Cl)=C(\Sc1ccccc1)N1CCCCC1,active: 11.2 µM
17,O=C(CCl)Nc1cc2[nH]c(=O)[nH]c2cc1Br,"inconclusive: 3.16 µM [activator, single point]"
18,COc1cc(OC)cc(-c2nc(-c3cccc(C)c3)no2)c1,"inconclusive: 11.2 µM [activator, partial curve]"
19,COc1ccc(C(C(=O)NC2CCCCC2)N(C(=O)CCCC(=O)Nc2ccccn2)c2ccc3c(c2)OCCO3)cc1 (stereo not drawn),inactive
20,O=C(Nc1nc2ccccc2n1CCN1CCOCC1)c1ccc(COc2ccccc2Br)o1,inactive
21,Nc1c(-c2cccc(Cl)c2)cnn1-c1ccccc1,"inconclusive: 15.8 µM [activator, single point]"
22,COc1ccc(C(C(=O)NCCC(C)C)N(CCO)C(=O)c2snc(C(N)=O)c2N)cc1 (stereo not drawn),inactive
23,Cc1csc(NC(=O)CSc2ncnc3ccccc23)n1,"inconclusive: 20 µM [activator, single point]"
24,CCc1nc2oc3ccccc3c(=O)c2c(=O)n1-c1ccccc1,"inconclusive: 6.31 µM [activator, partial curve]"

row,Structure (SMILES),Potency
1,Fc1cccc(C2NN=C(c3ccccc3)S2)c1 (stereo not drawn),active: 3.55 µM
2,CCc1ccc(Cn2c(CNS(=O)(=O)c3ccc(F)c(Cl)c3)nc3cccnc32)cc1,inactive
3,COC(=O)c1cccc(Cn2c(Cl)c(/C=N/NC(=O)c3ccco3)sc2=O)c1,"inconclusive: 15.8 µM [activator, partial curve, poor fit]"
4,Cn1c(NCC2CCCCC2)nc2cc(-c3ccsc3)sc2c1=O,active: 2 µM
5,Oc1ccc(N=Nc2c(O)ccc3ccccc23)cc1,inactive
6,CCOC(=O)C(C)(C)N(Cc1ccc(C)cc1)S(=O)(=O)c1ccc(Cl)c([N+](=O)[O-])c1,"inconclusive: 35.5 µM [activator, single point]"
7,CCOC(=O)Nc1ccc2c(c1)N(C(=O)CCN(C)C)c1ccccc1S2,"inconclusive: 25.1 µM [activator, single point]"
8,CCCSc1nc(C)c(C(C)=O)cc1C#N,"inconclusive: 12.6 µM [activator, partial curve, poor fit]"
9,CN1C(=O)C(Cl)(Cl)C(=O)c2ccccc21,"inconclusive: 17.8 µM [activator, single point]"
10,O=C(/C=C/c1ccccc1F)c1cccc([N+](=O)[O-])c1,"inconclusive: 12.6 µM [activator, partial curve]"
11,COc1ccccc1C#CC1=CC(=O)CC(C)(C)C1,active: 14.1 µM
12,CC(C)(C)n1nc2c(c1NC(=O)c1cc3ccccc3o1)CS(=O)(=O)C2,inactive
13,O=c1[nH]c(-c2ccco2)nc2sc3c(c12)CCCC3,"inconclusive: 17.8 µM [activator, partial curve, poor fit]"
14,CCCN(N=Nc1cccc([N+](=O)[O-])c1)c1cccc([N+](=O)[O-])c1,"inconclusive: 20 µM [activator, single point]"
15,FC(F)(F)c1cc(-c2ccco2)nc(-n2nnc3ccccc32)n1,"inconclusive: 2.51 µM [activator, full curve, poor fit]"
16,O=C(CSc1ccc2c(c1)OCCO2)NC(=O)NC1CCCC1,inactive
17,Cc1[nH]nc2c1C(C(C)c1ccccc1)C(C#N)=C(N)O2 (stereo not drawn),"inconclusive: 15.8 µM [activator, single point]"
18,COc1ccc(OC)c(NC(=O)CSc2ccc(-c3ccco3)nn2)c1,"inconclusive: 11.2 µM [activator, partial curve, poor fit]"
19,COc1cc(S(=O)(=O)N2CCOCC2)ccc1NC(=O)COC(=O)CC12CC3CC(CC(C3)C1)C2,inactive
20,Cc1nn(-c2ccc(F)cc2)c2sc(C(=O)N3CCCCCC3)cc12,inactive
21,CC(=O)Nc1nc2c(s1)CCc1ccccc1-2,"inconclusive: 11.2 µM [activator, partial curve, poor fit]"
22,Fc1cccc(Cc2c(-c3ccccc3)nc3c4ccccc4ccn23)c1,"inconclusive: 17.8 µM [activator, single point]"
23,CCOC(=O)c1ccc(NS(=O)C23CC4CC(CC(C4)C2)C3)cc1 (stereo not drawn),inactive
24,Nc1ccccc1NC1=CC(=O)CC(c2ccco2)C1 (stereo not drawn),"inconclusive: 11.2 µM [activator, single point]"
